Laboratory results reported in US20130261137A1, “Methods, Compounds and Compositions Relating to Activating a Latent Virus” (ULC BUSINESS PLC, priority 2010, published 2013).
Like-named read-outs stand apart in the source and are kept apart here.

Test system: KSHV RTA in JSC-1 PYFP cells

| SMILES | effect of inhibitor on KSHV RTA induction by 15026 (15026 0.8 μM, 40 h) | effect of inhibitor on KSHV RTA induction by 15026 |
| --- | --- | --- |
| O=C(NOC[C@H](O)CO)c1ccc(F)c(F)c1Nc1ccc(I)cc1F [PD0325901] | inhibited |  |
| CC(C)[C@H](NC(=O)c1ccc2ccccc2n1)C(=O)N[C@@H](CC(=O)O)C(=O)COc1c(F)cccc1F [Q-VD-OPH] | no effect |  |
| Nc1ncnc2c1ncn2[C@@H]1O[C@@H]2COP(O)(=S)O[C@H]2[C@H]1O (stereo partly shown) [Rp-cAMP] | no apparent effect |  |
| N#CC(=C(/N)Sc1ccccc1N)/C(C#N)=C(\N)Sc1ccccc1N [U0126] |  | reduced levels of RTA induction |
